Laboratory results published in article PMC4336329 (PLoS ONE, 2015).
Hit rate of the full screen: of about 310,000 compounds, about 2,200 (0.71%) showed an effect of 50% or more. Effects have a minus sign here. The list shows a part of the results.

These compounds were tested against human ether-à-go-go-related gene (hERG) potassium channel (human, UniProt Q12809) (assay: primary screen, population patch clamp on CHO cells stably expressing hERG).
Chain of human ether-à-go-go-related gene (hERG) potassium channel (Q12809 whole entry, looked up): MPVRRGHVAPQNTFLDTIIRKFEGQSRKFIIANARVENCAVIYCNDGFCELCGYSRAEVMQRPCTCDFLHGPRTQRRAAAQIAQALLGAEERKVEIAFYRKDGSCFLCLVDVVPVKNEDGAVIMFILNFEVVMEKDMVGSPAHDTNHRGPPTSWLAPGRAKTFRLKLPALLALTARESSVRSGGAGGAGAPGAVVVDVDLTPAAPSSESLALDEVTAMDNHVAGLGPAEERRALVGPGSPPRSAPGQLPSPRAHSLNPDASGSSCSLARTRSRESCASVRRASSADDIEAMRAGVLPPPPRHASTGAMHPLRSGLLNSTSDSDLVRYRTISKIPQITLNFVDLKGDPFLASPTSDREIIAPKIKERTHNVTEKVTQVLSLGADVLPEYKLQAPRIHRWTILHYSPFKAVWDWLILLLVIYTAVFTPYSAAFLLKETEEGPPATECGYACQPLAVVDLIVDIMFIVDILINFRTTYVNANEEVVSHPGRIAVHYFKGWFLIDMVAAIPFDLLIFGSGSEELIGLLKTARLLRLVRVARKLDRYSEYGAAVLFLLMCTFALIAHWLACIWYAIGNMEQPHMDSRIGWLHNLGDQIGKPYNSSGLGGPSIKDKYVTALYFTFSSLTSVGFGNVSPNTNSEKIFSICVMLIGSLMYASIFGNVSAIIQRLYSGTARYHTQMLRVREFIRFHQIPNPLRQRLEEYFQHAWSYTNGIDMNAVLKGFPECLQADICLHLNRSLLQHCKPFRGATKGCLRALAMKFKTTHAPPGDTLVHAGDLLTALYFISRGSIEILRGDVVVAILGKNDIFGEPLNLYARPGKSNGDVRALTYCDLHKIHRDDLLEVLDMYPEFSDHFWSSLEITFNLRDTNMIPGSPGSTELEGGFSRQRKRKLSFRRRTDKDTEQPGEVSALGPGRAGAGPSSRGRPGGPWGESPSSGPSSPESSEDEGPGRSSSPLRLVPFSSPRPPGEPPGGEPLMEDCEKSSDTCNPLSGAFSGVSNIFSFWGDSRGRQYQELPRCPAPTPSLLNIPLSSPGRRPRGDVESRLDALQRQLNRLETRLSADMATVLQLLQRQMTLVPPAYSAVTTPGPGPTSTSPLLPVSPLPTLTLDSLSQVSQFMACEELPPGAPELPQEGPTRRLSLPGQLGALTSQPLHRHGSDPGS

Row | SMILES | hERG current change (%, negative = inhibition) at 1uM
1 | COCCn1c(SCC(=O)NCc2ccco2)nnc1C(C)C | 16.3%
2 | COc1ccc(C2/C(=C(/O)c3ccccc3)C(=O)C(=O)N2CCO)cc1 (stereo not shown) | -4.86%
3 | COCCn1c(CN2CCN(c3cccc(Cl)c3)CC2)nc2c1c(=O)n(C)c(=O)n2C | -28.3%
4 | Cc1cc(COc2ccccc2OCc2cc(C)no2)on1 | 16.8%
5 | CCCNC(=O)N1CCN(c2ncccn2)CC1 | 3.29%
6 | CCOC(=O)N1CCN(c2c(Nc3cc(C)[nH]n3)c(=O)c2=O)CC1 | 13.1%
7 | Cc1c(C(=O)N2CCCCC2)c(S(=O)(=O)NCc2ccc(F)cc2)c(C)n1C | 6.37%
8 | O=C(CCc1nc2sc3c(c2c(=O)[nH]1)CCCC3)NCCc1ccccc1 | 10.4%
9 | CSc1ccc(/C=N/N2CCN(c3ccccc3)CC2)cc1 | -13.3%
10 | CCOc1ccc(NC(=O)c2ccc(-c3csc(C)n3)cc2)cc1 | 15.4%
11 | CC[n+]1c(/C=C/N(C)c2ccccc2)sc2ccc(Cl)cc21.[O-][Cl+3]([O-])([O-])[O-] | -24.4%
12 | C=CCn1c(=O)c2ccccc2n2c(SCC(=O)c3ccccc3)nnc12 | 7.16%
13 | Cc1ccccc1-n1nc2c(c1NC(=O)C(C)(C)C)CS(=O)(=O)C2 | 14.8%
14 | Cc1cccc(NC(=O)NCCCCc2ccccc2)c1 | 7.23%
15 | CCCCn1c(SCC(=O)N2CCCC2)nc2c1c(=O)n(C)c(=O)n2C | -6.17%
16 | CCc1ccc(CSc2nccn2-c2ccccc2)cc1 | 8.1%
17 | COc1ccc(S(=O)(=O)N2CCCCCC2)cc1NC(=O)c1ccccc1 | 15.5%
18 | CC(=O)Nc1ccc(OCCCNC(=O)c2c(-c3ccccc3)noc2C)cc1 | 22.9%
19 | COCCNC(=O)C1CCN(S(=O)(=O)c2c(C)noc2/C=C/c2cccs2)CC1 | -10.8%
20 | O=C(NCCS(=O)CCNC(=O)C(F)(F)F)C(F)(F)F | 14.8%
21 | Cc1ccc(CSCCNC(=O)CCSc2ccccc2)cc1 | -5.65%
22 | CN(C)C(=S)Nc1ccc2ccccc2c1 | 20.6%

Row | SMILES | hERG current change (%, negative = inhibition) at 1uM
23 | COC(=O)c1ccc(NC(=O)C(=O)N2CCN(C(=S)Nc3ccc(C)cc3)CC2)cc1 | 12.6%
24 | C/C(=N\N=C1\NC(=O)C(CC(=O)Nc2ccc(Cl)cc2)S1)c1ccco1 (stereo not shown) | 2.05%
25 | COc1ccccc1CC(=O)O/N=C(\N)c1cccc([N+](=O)[O-])c1 | 6.87%
26 | CN(CC(=O)Nc1ccccc1Cl)C(=O)COC(=O)c1cnccn1 | 9.8%
27 | CCS(=O)(=O)C1=NSC2=NC(=O)/C(=C\c3ccc(OS(=O)(=O)c4ccccc4)cc3)C(=N)N21 | 23.2%
28 | COc1cccc(Nc2nc(-c3ccc4c(c3)OCCO4)cs2)c1 | 6.03%
29 | COc1cccc(CNC(=O)C2CCN(S(=O)(=O)c3ccc4c(c3)CC(C)N4C(C)=O)CC2)c1 (stereo not shown) | 4.71%
30 | CC(C)(C)OC(=O)N1CCN(C(=O)c2[nH]cnc2C(=O)Nc2nccs2)CC1 | 4.3%
31 | COc1ccc(OC)c(NC(=O)Cn2c(CCC(=O)O)ccc2-c2ccccc2)c1 | -3.62%
32 | CN=C(c1ccc([N+](=O)[O-])cc1)N1CCCCC1 | 9.55%
33 | COc1ccc(CC(NC(C)=O)C(=O)NC2CCN(c3c4c(nc5ncnn35)CCC4)CC2)cc1 (stereo not shown) | 12%
34 | CCOc1ccc(S(=O)(=O)NCCC(=O)N(CC)CC(=O)Nc2c(F)cccc2F)cc1 | 5.53%
35 | CCn1ccnc1CN(C)Cc1nc(-c2ccccc2)no1 | 3.14%
36 | C/C=C/C=N/NC(=O)CN(c1ccc(Br)cc1)S(=O)(=O)c1ccccc1 | 7.6%
37 | Cc1ccc(C(=O)O[C@H](C(=O)O)[C@H](OC(=O)c2ccc(C)cc2)C(=O)O)cc1 | 6.56%
38 | Cc1sc2ncnc(SCc3ccco3)c2c1C | 8.64%
39 | COc1ccc(S(=O)(=O)Nc2ccc(F)c(F)c2)cc1Cl | 15.8%
40 | CCOc1ccc(N2CC(C(=O)N3CCCc4ccccc43)CC2=O)cc1 (stereo not shown) | -31.4%
41 | COc1ccc(N/N=C(/C#N)S(=O)(=O)C(C)(C)C)cc1 | 12.8%
42 | Cc1cccc(OCc2nc(-c3cccnc3)no2)c1 | 16.1%
43 | Cc1c(C)c2c(OCC(=O)N[C@@H](CC(C)C)C(=O)O)cc3c(c2oc1=O)CCC(C)(C)O3 | 10.1%
